For four molecules, binding results are on record in article PMC9806626.

By UniProt entry, the sequences of proteins in these tests, tags left out.
UniProt P56757: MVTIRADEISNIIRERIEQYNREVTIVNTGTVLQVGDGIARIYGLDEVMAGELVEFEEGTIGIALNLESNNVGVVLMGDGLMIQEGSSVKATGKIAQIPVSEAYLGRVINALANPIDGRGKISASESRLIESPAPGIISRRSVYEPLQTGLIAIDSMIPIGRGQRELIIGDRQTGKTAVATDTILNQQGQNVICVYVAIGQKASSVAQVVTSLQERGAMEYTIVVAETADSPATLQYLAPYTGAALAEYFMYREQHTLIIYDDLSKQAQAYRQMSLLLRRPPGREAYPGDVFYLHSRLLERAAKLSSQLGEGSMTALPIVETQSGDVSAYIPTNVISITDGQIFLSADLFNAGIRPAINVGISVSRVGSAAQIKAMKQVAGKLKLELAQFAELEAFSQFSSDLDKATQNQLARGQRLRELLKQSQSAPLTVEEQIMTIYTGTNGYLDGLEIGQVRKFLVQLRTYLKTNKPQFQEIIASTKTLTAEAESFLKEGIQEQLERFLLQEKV
UniProt P19366: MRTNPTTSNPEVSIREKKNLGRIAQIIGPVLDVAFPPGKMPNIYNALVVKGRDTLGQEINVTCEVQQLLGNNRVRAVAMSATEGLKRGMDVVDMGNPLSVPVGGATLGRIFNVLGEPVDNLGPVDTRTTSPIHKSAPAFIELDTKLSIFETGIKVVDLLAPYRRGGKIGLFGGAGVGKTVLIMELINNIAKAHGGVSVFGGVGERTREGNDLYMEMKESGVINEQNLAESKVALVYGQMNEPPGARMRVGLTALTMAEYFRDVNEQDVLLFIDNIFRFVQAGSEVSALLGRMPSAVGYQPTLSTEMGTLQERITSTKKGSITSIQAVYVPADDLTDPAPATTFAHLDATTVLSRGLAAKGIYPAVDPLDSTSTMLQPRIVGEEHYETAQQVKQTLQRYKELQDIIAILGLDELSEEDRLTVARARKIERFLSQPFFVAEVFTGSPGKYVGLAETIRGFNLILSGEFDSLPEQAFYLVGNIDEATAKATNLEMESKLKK

These are yes or no findings as the source states them, for the method shown. Some entries that bind do so weakly or less than the wild type. Sequences can lack the tags named with a protein.

Assay in all cases: two-hybrid; Matchmaker GAL4 system (Clontech), bait pGBKT7, prey pGADT7, yeast AH109; growth on SD -Leu/-Trp/-His/-Ade in serial dilutions
Experiment [1] addresses T1, BD-AtCGL160N (AtCGL160 29–206 aa fused to the GAL4 DNA-binding domain) (Arabidopsis thaliana) (UniProt O82279).
T1 sequence: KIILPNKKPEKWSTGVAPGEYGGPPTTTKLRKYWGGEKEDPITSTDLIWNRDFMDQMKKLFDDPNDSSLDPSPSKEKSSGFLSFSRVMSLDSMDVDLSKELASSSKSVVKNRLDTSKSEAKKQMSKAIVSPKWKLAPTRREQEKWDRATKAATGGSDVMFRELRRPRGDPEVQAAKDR

For experiment [2], the target named is T2, BD-AtCGL160N Δ135–160 (Arabidopsis thaliana) (UniProt O82279).
T2 sequence: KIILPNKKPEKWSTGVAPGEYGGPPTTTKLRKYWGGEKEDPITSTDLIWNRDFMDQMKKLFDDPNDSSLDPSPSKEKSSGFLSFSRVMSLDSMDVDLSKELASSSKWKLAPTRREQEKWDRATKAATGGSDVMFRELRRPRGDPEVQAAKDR

For experiment [3], the target named is T3, BD-AtCGL160N Δ29–73 (Arabidopsis thaliana) (UniProt O82279).
T3 sequence: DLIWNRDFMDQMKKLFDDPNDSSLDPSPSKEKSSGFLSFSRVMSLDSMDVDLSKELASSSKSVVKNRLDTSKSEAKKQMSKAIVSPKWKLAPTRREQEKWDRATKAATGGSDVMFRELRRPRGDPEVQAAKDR

The target in experiment [4] is T4, BD-AtCGL160N Δ161–206 (Arabidopsis thaliana) (UniProt O82279).
T4 sequence: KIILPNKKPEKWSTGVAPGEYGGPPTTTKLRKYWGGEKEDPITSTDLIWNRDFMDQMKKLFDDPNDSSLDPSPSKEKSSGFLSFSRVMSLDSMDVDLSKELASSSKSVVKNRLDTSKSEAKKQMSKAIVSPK

Experiment [5] addresses T5, BD-AtCGL160N Δ74–105 (Arabidopsis thaliana) (UniProt O82279).
T5 sequence: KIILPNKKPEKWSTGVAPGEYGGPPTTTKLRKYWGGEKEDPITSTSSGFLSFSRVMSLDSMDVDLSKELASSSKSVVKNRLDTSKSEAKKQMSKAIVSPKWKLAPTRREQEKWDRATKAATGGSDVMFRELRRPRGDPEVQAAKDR

Experiment [6] concerns the target T6, BD-AtCGL160N Δ106–134 (Arabidopsis thaliana) (UniProt O82279).
T6 sequence: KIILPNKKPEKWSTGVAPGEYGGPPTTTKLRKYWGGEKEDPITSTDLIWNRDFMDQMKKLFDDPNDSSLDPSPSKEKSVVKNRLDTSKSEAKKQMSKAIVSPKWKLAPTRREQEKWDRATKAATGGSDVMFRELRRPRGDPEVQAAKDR

In the case of AD-CF1-α (from UniProt P56757 1-507), the binding result in experiment [1] was “no binding”.
As to AD-CF1-β (from UniProt P19366 1-498), the binding entry in experiment [2] was “binds”; in experiment [1], “binds”; in experiment [3], “no binding”; in experiment [4] it was “binds”; in experiment [5], “no binding”; in experiment [6] it was “binds”.

B1: AD-CF1-ε (protein, UniProt P09468 1-132)
chain: MTLNLCVLTPNRIVWDSEVKEIILSTNSGQIGVLANHAPIATAVDIGILKIRLANQWLTMALMGGFARIGNNEITILVNDAEKNSDIDPQEAQQTLEIAEANLRKAEGKRQTIEANLALRRARTRVEALNTI
For the molecule B1, the binding result in experiment [1] was “no binding”.

B2: AD-CFO-b (soluble domain, 51–184 aa) (domain or fragment, UniProt P56759 51-184)
chain: DLLDNRKQRILNTIRNSEELREGAIQQLENARARLRNVETEADKFRVNGYSEIEREKLNLINSTYKTLKQLENYKNETILFEQQRTINQVRERVFQQALQGAIGTLNSCLSNELHLRTINANIGMFGTMKEITD
Regarding B2, the binding entry in experiment [1] was “no binding”.
